Data as given in PMC4336329 (PLoS ONE, 2015).
Among all 310,000 compounds or so, about 14,000 (4.5%) showed an effect of 50% or more. Effects have a minus sign here. Some of the results follow.

target: human ether-à-go-go-related gene (hERG) potassium channel (human, UniProt Q12809); assay: primary screen, population patch clamp on CHO cells stably expressing hERG
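Note: peak tail current of the secondary pulse compared with the same well before compound.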

Chain of human ether-à-go-go-related gene (hERG) potassium channel (Q12809 whole entry, looked up): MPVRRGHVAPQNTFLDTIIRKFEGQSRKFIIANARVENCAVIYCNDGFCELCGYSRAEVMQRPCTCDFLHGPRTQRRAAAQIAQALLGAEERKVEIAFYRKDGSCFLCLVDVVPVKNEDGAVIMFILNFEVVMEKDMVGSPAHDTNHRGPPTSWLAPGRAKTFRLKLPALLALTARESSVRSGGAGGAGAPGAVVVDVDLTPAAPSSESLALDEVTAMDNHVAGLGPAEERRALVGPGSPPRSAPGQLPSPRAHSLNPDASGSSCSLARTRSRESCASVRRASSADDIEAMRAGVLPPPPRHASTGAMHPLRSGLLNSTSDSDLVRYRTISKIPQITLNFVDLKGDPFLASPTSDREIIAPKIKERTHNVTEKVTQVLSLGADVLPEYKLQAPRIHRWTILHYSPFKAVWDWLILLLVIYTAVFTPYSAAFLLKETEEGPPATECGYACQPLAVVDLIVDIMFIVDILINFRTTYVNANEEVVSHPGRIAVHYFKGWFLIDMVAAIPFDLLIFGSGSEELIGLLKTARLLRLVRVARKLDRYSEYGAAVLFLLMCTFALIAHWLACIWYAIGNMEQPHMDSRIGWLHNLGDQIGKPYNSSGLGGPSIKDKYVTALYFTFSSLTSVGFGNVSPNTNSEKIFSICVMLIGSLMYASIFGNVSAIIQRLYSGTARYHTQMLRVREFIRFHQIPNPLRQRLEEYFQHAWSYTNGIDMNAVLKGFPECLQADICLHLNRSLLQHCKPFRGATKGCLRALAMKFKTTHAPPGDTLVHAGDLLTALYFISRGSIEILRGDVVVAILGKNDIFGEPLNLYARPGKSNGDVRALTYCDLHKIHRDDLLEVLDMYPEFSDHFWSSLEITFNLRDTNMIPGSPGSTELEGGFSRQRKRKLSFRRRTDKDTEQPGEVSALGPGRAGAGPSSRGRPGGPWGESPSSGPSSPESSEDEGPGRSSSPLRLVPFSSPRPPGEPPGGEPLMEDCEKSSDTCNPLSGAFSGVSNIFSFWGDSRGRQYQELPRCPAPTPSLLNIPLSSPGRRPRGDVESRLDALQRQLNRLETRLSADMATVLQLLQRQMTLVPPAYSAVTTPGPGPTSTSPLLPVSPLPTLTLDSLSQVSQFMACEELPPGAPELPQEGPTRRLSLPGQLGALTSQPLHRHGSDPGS

Row | Structure (SMILES) | hERG current change (%, negative = inhibition) at 10uM [%]
1 | CCN(CC)CCn1c(/N=C/c2ccc(OC)c(OC)c2)nc2ccccc21 | -29.1
2 | COC(=O)CN(c1ccccc1)S(=O)(=O)c1ccc(F)cc1 | -0.757
3 | CCN(CC)C(=O)CC(c1ccc(OC)cc1)c1c(OC)cc(OC)c2ccc(=O)oc12 (stereo not shown) | -5.25
4 | Cc1ccc(NC(=O)CSc2ccc(C(N)=O)cc2[N+](=O)[O-])cc1C | 46.6
5 | CCOc1ccc2oc(C(=O)OCC(=O)N3CC(C)OC(C)C3)c(C)c2c1 (stereo not shown) | -4.66
6 | COC(=O)c1ccc(-n2nnnc2SCC(=O)NCc2cccc(C(=O)O)c2)cc1 | 15.3
7 | CCN(CC)c1ccc(NC(=O)CSc2n[nH]c(-c3ccco3)n2)cc1 | -1.75
8 | OCCC1CN(Cc2cccc3nccnc23)CCN1Cc1ccc(F)c(F)c1 (stereo not shown) | -56.4
9 | COC(=O)N/N=C/c1cn(CCOc2cccc(OC)c2)c2ccccc12 | 3.52
10 | CC(=O)Cc1nsc(NC(=O)c2csc3c2CCCC3)n1 | -8.24
11 | Cc1ccc(CNC(=O)Cn2ccc3ccccc3c2=O)o1 | 7.92
12 | O=C(CN1CCOCC1)N1CCN(c2nnc(-c3ccccc3)c3ccccc23)CC1 | 7.35
13 | Cc1ccc(C(c2c(C)nn(-c3ccccc3)c2N)c2c(C)nn(-c3ccccc3)c2N)cc1 | -20
14 | CC(C)Oc1ccc(CN2CCCC(CO)(Cc3ccccc3)C2)cc1CO (stereo not shown) | -43.1
15 | CC1=NNC(=O)C1C(c1ccc(F)cc1)C(C#N)C#N (stereo not shown) | -7.89
16 | CCOC(=O)N1CCC(N(CCN(C)C)C(=S)Nc2cccc(SC)c2)CC1 | -11.6
17 | COc1ccccc1C1CC(=O)Nc2c1c(=O)n(C)c(=O)n2C (stereo not shown) | -7.94
18 | O=C(CNC(=O)c1ccco1)N=Nc1c(O)[nH]c2ccc(Br)cc12 | 16.8
19 | CCc1nc(C)cn1S(=O)(=O)c1ccc(Cl)c(Cl)c1Cl | -10.7
20 | CCOC(=O)C1CCCN(c2cc(NCCCO)c([N+](=O)[O-])c3nonc23)C1 (stereo not shown) | -40.7
21 | CCOc1ccc(OCc2nnc(SCC(=O)NC3CCS(=O)(=O)C3)n2-c2ccc(Cl)cc2)cc1 (stereo not shown) | -40.2
22 | CCCc1ncc(CN2CCCC(C(=O)Nc3ccc(-c4cccc(OC)c4)cc3)C2)cn1 (stereo not shown) | -39.7
23 | Cc1ccc(/C=C/C(=O)OCC(=O)N2CC(=O)Nc3ccccc32)o1 | -2.76
24 | CC1CCc2[nH]c3ccc(C(=O)N(C)CC(=O)Nc4cccc(F)c4)cc3c2C1 (stereo not shown) | -12.5
25 | CCOC(=O)c1[nH]c2ccc(C)cc2c1N=C(C)N(C)C | -9.99
26 | Cc1cc(C)nc(NC(=O)c2c(F)c(F)c(F)c(C(=O)Nc3cc(C)cc(C)n3)c2F)c1 | -8.14
27 | Cc1oc(/N=C/c2ccccc2O)c(C#N)c1C | 17.1
28 | CCOc1cc(C2CC(=O)NC(SCC)=C2C#N)ccc1O (stereo not shown) | 3.61

Row | Structure (SMILES) | hERG current change (%, negative = inhibition) at 10uM [%]
29 | CC(=O)c1cccc(NC(=S)NC(=O)c2cncc(Br)c2)c1 | 6.51
30 | Cl.OC(COc1ccc2c(c1)OCO2)CN1CCN(c2ccccc2)CC1 (stereo not shown) | -2.44
31 | CCOc1ccc(N2C(=O)Nc3ccc(Br)cc3C2(O)C(=O)NCCCN(C)C)cc1 (stereo not shown) | 12.3
32 | Cc1c(C(=O)N2CCc3ccccc3C2)sc2nc(-c3ccccc3)cn12 | -15.3
33 | CCOC(=O)c1nn(-c2ccccc2F)c2nc(Nc3ccccc3)cc(=O)n12 | 8.14
34 | C[C@H](NC(=O)c1nc[nH]c1C(=O)NCc1ccccc1)c1ccccc1 | 5.54
35 | CC1CCCCC1NC(=O)c1nnc(Cc2ccc(Cl)cc2)o1 (stereo not shown) | -9.72
36 | O=C(Nc1ccccn1)c1ccc(S(=O)(=O)N2CCCCC2)cc1 | 0.489
37 | O=C(Cn1cc(Br)ccc1=O)Nc1ccc2c(c1)OCO2 | 22
38 | O=C(N/N=C/c1ccco1)c1cc(-c2ccccc2)nc2ccccc12 | 2.45
39 | CC1=CC(C)=[NH+]c2ccc(C)cc2N1.[Cl-] | -6.12
40 | O=C(c1noc2c1CCCC2)N1CCN(Cc2ccccc2)CC1 | -0.531
41 | CCC(C)Sc1nc2c(cnn2-c2ccc(C)c(C)c2)c(=O)[nH]1 (stereo not shown) | -13.6
42 | OCc1cn(-c2ccccc2)nc1-c1ccc(Br)cc1 | 13.1
43 | CCCC(=O)Nc1ccc(N2CCN(C(=O)c3cccs3)CC2)cc1 | -49.2
44 | CCOc1cccc(C(=O)Nc2cccnc2)c1 | 4.13
45 | O=C(O)c1ccc(N=Cc2c(O)ccc3ccccc23)cc1 | 1.85
46 | CN(C)S(=O)(=O)c1cc(C(=O)NCC2CCCO2)c(Cl)cc1Cl (stereo not shown) | 11.1
47 | CCCCS(=O)(=O)N1C2=NC(C(=O)OC)=C(C(=O)OC)[C@@H]3N(C)c4ccc(OC)cc4[C@]23C[C@H]1C(=O)OC | -28.9
48 | Cc1ccccc1OCC(=O)NCCNC(=O)c1cccnc1 | 19
49 | O=C(CNCC1CCCO1)Nc1ccc(N2CCCCCC2)cc1.O=C(O)C(=O)O (stereo not shown) | -31.9
50 | Cc1cc(C=O)c(C)n1-c1sc2c(c1C(=O)O)CCCC2 | 6.33
51 | COc1cc(OC)cc(C(=O)N2CCN(Cc3ccc4c(c3)OCO4)CC2)c1.O=C(O)C(=O)O | -9.72
52 | O=C(CN1CCN(c2ccccc2)CC1)c1ccc2cc[nH]c2c1 | 11.4
53 | Cc1ccc(S(=O)(=O)N2CCCC(C(=O)NC3CCCC3)C2)cc1Cl (stereo not shown) | 17.8
54 | COc1ccc(NC(=O)OCCN2CCN(Cc3ccccc3)CCC2=O)cc1 | -9.25
55 | Cc1cc2c(c(=O)n1Cc1cccnc1)C(c1ccc(F)cc1)C(C#N)=C(N)O2 (stereo not shown) | 0.0836
